Structures are written as SMILES. About 540 (0.36%) of roughly 150,000 compounds showed an effect of 50% or more. Some of the results follow.

The experiment deals with Plasmodium falciparum. Nature of the experiment: Primary screen in NF54 nanoGlo assay, in single point, at 2uM, 72h; a lower Z score goes with more inhibition. The class given is functional, Erythrocyte. To be noted: timepoint 72 hour.
Take `O=C(Cn1cc(OCc2ccccc2)c(=O)cc1CO)Nc1ccc2c(c1)OCO2`: the “% Inhibition” value is given as -3% and the Z score was found to be 0.37.
The corresponding values for `COc1cc(OC)c(C(=O)N2CC(O)(c3ccccc3)C2)cc1OC` are -2% and 0.27.
The corresponding values for `Cc1ccccc1C(=O)N1C(C(=O)NCC2CCCO2)COC12CCN(C(=O)c1ccccc1F)CC2` (stereo not given) are -3% and 0.3.
The corresponding values for `O[C@@H]1CCN(Cc2nc3cc(Br)ccc3[nH]2)C1` are -7% and 0.97.
With `Cc1cc(=O)[nH]c(N2CCC(NC(=O)CC3CCCCC3C)C2)n1` (stereo not given), the “% Inhibition” value is reported as -6% and the Z score came to 1.25.
The corresponding values for `Cc1csc([C@H](C)NCc2ccc(F)c(C#N)c2)n1` are 1% and -0.09.
The like results for `COC[C@H](NC(=O)c1ccn2c(C)cnc2c1)c1ccco1` were, in that order, 0% and -0.02.
The corresponding values for `O=C(c1cc2ccccc2[nH]1)N1C2CCC1CC(=C1CC1)C2` are 10% and -1.34.
Regarding `c1ccc2c(c1)CCO[C@H]2Cn1ccnc1-c1cn(C2CCNCC2)nn1`, the “% Inhibition” value was -7% and the Z score is recorded as 1.38.
As to `C[C@H]1COCCN1C1CCN(c2ccc(S(=O)(=O)C(F)F)cc2)CC1`, the “% Inhibition” value is -4% and the Z score stood at 0.62.
The corresponding values for `COCc1nc(OC)cc(N2CC3(C[C@H](O)CNC3=O)C2)n1` are 3% and -0.44.
The like results for `COc1ccc(C(=O)NCCCc2nnc3ccccn23)o1` were, in that order, -9% and 1.7.
For `CN=C(NCCOC)NCc1cccc(C(F)(F)F)c1`, the “% Inhibition” value came out at 2% and the Z score is -0.32.
The corresponding values for `CCCn1ccnc1CN1CCN(Cc2ccc3c(c2)OCO3)C(=O)C1` are 0% and 0.
The corresponding values for `COCCNC(=O)[C@@H]1Cn2c(n[nH]c2=O)CN1C(=O)CCCc1ccccc1` are -14% and 1.69.
The like results for `Cc1cnn(CCC(=O)N2CC(=O)N(CC3CC3)C2)c1` were, in that order, -9% and 1.73.
For the compound `CCOC1CC(NC(=O)NC2CCC(=O)NC23CCC3)C12CCC2` (stereo not given), the “% Inhibition” value is 3% and the Z score is -0.37.
The like results for `O=C(c1ccc(OC2CCN(C3CCCCCC3)CC2)cc1)N1CCCCC1` were, in that order, -11% and 1.45.
Take `CCc1ccc(S(=O)(=O)Oc2ccc3c(c2)CCC(=O)N3)cc1`: the “% Inhibition” value is on record as -10% and the Z score is reported as 1.39.
Take `NC(=O)c1ccc(C(=O)N2CC3CN(c4ccccc4)CC3C2)cc1` (stereo not given): the “% Inhibition” value was -18% and the Z score is 2.4.
Take `O=C(N[C@H]1CS(=O)(=O)c2ccccc21)c1cc2ccccc2[nH]1`: the “% Inhibition” value was -12% and the Z score worked out at 1.
The corresponding values for `COc1cccc(NCc2ccn(C)n2)n1` are -14% and 1.7.
As to `CCOc1ccc(C(=O)NCCN2CCN(S(=O)(=O)c3ccccc3)CC2)cc1`, the “% Inhibition” value is -15% and the Z score was determined as 1.8.
`CS(=O)(=O)N[C@H]1CCN2C(=O)c3cc(-c4ccc(Cl)cc4)ccc3NC(=O)[C@@H]2C1`: the “% Inhibition” value was determined as 26% and the Z score is -2.94.
The like results for `OC[C@H](NCC1CC=CC1)c1ccc(F)cc1F` were, in that order, -9% and 0.92.
The like results for `Cc1ccc(-n2cnc3c2CCN(c2nc4c(cc2C#N)COCC4)C3)cc1` were, in that order, 0% and -0.03.
Consider `Cc1ccc(C2=NOC3(CCN(C(=O)Cc4ccccc4C)CC3)N2)cc1`, for which the “% Inhibition” value is given as -18% and the Z score is given as 2.17.
The like results for `Cn1nccc1CC(=O)N1CCCc2ccc(F)c(Cl)c21` were, in that order, -10% and 1.37.
The like results for `Cc1nonc1CNC(=O)CCC(=O)N1CCCCCC1` were, in that order, -7% and 0.93.
The corresponding values for `CC1COC(c2ccccc2)C(C)N1C(=O)c1cnc2ccccc2n1` (stereo not given) are -12% and 1.09.
As for `CNS(=O)(=O)C[C@H]1CCCN1C(=O)CCc1ccco1`, the “% Inhibition” value was -14% and the Z score is given as 2.04.
The corresponding values for `CCOC(=O)c1cc(NC(=O)N2CCOCC2)c(C)nc1C` are 9% and -1.05.
The like results for `CCOC(=O)CCN(C(=O)COc1c(C)cccc1C)[C@@H](C)CC` were, in that order, -9% and 1.18.
Consider `CC(c1ccncc1)N(C)S(=O)(=O)C[C@H]1C[C@H]2CCCC[C@H]21` (stereo not given in full), for which the “% Inhibition” value is -16% and the Z score turned out to be 2.43.
The corresponding values for `OC[C@@H]1CCCN1Cc1csc(-c2ccc(Br)cc2)n1` are -2% and 0.39.
The corresponding values for `FC(F)(F)c1cnccc1NCc1nc2c([nH]1)CCCC2` are -3% and 0.49.
The like results for `Cc1ccc(C2CN(Cc3cccs3)CC2CN(C(=O)c2ccccc2)C(C)C)cc1` (stereo not given) were, in that order, -1% and 0.12.
`O=C(COc1cccc(Br)c1)NCC(=O)NC1CC1`: the “% Inhibition” value is -7% and the Z score was 0.6.
The corresponding values for `O=C(Nc1ccnn1CC1CC1)c1cc(C2CC2)[nH]n1` are 3% and -0.38.
As for `CCN=C(NCc1nncn1C)NC[C@H](C)c1ccc(F)c(F)c1`, the “% Inhibition” value was -10% and the Z score is recorded as 1.32.
The like results for `Cc1csc(CN(C)C(=O)CCc2nncn2C)n1` were, in that order, 0% and -0.04.
The corresponding values for `CN(C)c1cccc(Cn2cnc3cn(C)nc3c2=O)c1` are -6% and 1.14.
The corresponding values for `Cc1ccc(S(=O)(=O)N(CC(=O)NCCN2CCOCC2)c2cccc(Cl)c2)cc1` are 24% and -2.66.
As for `Cn1cc(-c2nsc(NC(=O)c3cn(C)nc3C(F)F)n2)cn1`, the “% Inhibition” value is recorded as -9% and the Z score is reported as 1.15.
On to `Cc1cccc2nc(CN[C@@H](C)c3ccncc3F)cc(=O)n12`, for which the “% Inhibition” value is recorded as -8% and the Z score was 1.51.
The like results for `C[C@@H](CN1CC2(CCN(CCC(N)=O)CC2)OC1=O)c1ccccc1` were, in that order, -23% and 2.3.
The like results for `CC(C)CNC(=O)[C@H]1CCN(c2cnn(Cc3ccccc3)c(=O)c2)C1` were, in that order, -1% and 0.09.
As to `COc1cc(OC)c2ncc(C#N)c(N3CCN[C@@H](CO)C3)c2c1`, the “% Inhibition” value was -4% and the Z score was 0.61.
Take `CN(Cc1ncc(C(C)(C)C)o1)c1ccccc1F`: the “% Inhibition” value is on record as -4% and the Z score is recorded as 0.42.
The corresponding values for `Cc1ccc(C)c(S(=O)(=O)NCCNC(=O)Cc2ccoc2)c1` are -5% and 0.64.
Regarding `CCn1ncnc1CN1C[C@H]2C[C@H](c3ccccc3)CC[C@@]2(C(=O)O)C1`, the “% Inhibition” value is -14% and the Z score turned out to be 2.57.
The like results for `Cc1cc(N2CCN(S(=O)(=O)c3ccc(Cl)cc3)CC2)nc(N2CCOCC2)n1` were, in that order, -3% and 0.31.
On to `O=C(CC1CC2CCC1C2)NCCn1ccnn1` (stereo not given), for which the “% Inhibition” value turned out to be 25% and the Z score was -2.92.
The like results for `Cc1nc(NCc2csc(C(C)(C)C)n2)n(C)n1` were, in that order, -9% and 1.63.
The like results for `CCCC(=O)N1CCCCC1C(=O)N1CCC(n2cc(C)cn2)C1` (stereo not given) were, in that order, -13% and 1.34.
On to `O=C(CN1CCN(C(=O)Nc2ccc(Cl)cc2)CC1=O)NCc1ccccc1`, for which the “% Inhibition” value was 1% and the Z score is -0.11.
As for `CS(=O)(=O)N1CC[C@H](c2nc3cc(F)ccc3[nH]2)C1`, the “% Inhibition” value worked out at 31% and the Z score was -3.55.
The corresponding values for `Brc1ccc(-c2nnc(-c3ccc(Br)cc3)c3nocc23)cc1` are 31% and -3.99.
The corresponding values for `CN(Cc1ccccc1)[C@H]1CCOC2(CCN(C(=O)Cc3ccccc3)CC2)C1` are -8% and 1.1.
The corresponding values for `O=C(C[C@H](c1ccc(C(F)(F)F)cc1)c1c[nH]c2ccccc12)Nc1cc(C(F)(F)F)cc(C(F)(F)F)c1` are -10% and 0.95.
As for `O=C(Nc1nc2[nH]c(-c3ccccc3)cc(=O)n2n1)c1ccccc1F`, the “% Inhibition” value is 7% and the Z score is -1.2.
The like results for `C/C=C/Cc1nc(C2CCOCC2)n[nH]1` were, in that order, -1% and 0.16.
For `CC(C)c1nc(C(=O)N[C@@H](C)C(N)=O)cs1`, the “% Inhibition” value is -9% and the Z score is listed as 1.83.
The corresponding values for `Cc1ccc(S(=O)(=O)N(C)CC2(O)CCCC2)s1` are -13% and 1.96.
The like results for `CC(C)[C@H]1C(=O)NCCN1Cc1ccn(C2CCCC2)n1` were, in that order, -12% and 1.17.
The like results for `CCOCCCN=C(NCCOC)NCc1ccc(COC)cc1` were, in that order, -8% and 1.11.
For `O=C(CS(=O)(=O)CC(=O)c1ccc2c(c1)NC(=O)CO2)Nc1ccccc1`, the “% Inhibition” value was -2% and the Z score was found to be 0.28.
For `CC(c1cc(F)ccc1F)N1CC[C@H](O)C1` (stereo not given in full), the “% Inhibition” value is -7% and the Z score is on record as 0.84.
Turning to `CCCOc1ccc([C@H](C)NC(=O)N(C)CC2(C)COC2)cc1`, the “% Inhibition” value is recorded as -11% and the Z score stood at 1.47.
`CN(CC1CCOCC1)C(=O)NCc1cc(-c2cccc(Cl)c2)no1`: the “% Inhibition” value is listed as -11% and the Z score amounted to 2.02.
The like results for `COc1cccc(N(CC(=O)Nc2ccc(OC(F)(F)F)cc2)c2nc3ccccc3s2)c1` were, in that order, -12% and 1.84.
The corresponding values for `CCCNC(=O)N1CCCN(c2nc(C)nc3c2c(C)nn3-c2ccccc2Cl)CC1` are -8% and 0.77.
The like results for `CCC(=O)N1CCc2[nH]cnc2C12CCN(C(=O)CCc1scnc1C)CC2` were, in that order, 1% and -0.18.
As to `CCOCCCNC(=O)C1CCN(c2nnc(C)c3c(C)n(-c4ccc(Cl)cc4)nc23)CC1`, the “% Inhibition” value was determined as 10% and the Z score is on record as -1.13.
The corresponding values for `CC(C)NC(=O)c1n[nH]c2c1CCCCCC2` are -15% and 2.26.
On to `CC(=O)N1N=C(c2ccc(C)cc2)OC1(C)C`, for which the “% Inhibition” value is reported as -2% and the Z score worked out at 0.26.
The like results for `CCc1ccc(CN(Cc2cccnc2)Cc2ccc3c(c2)OCO3)nc1` were, in that order, -9% and 1.34.
The corresponding values for `O=C(NC[C@@H]1C[C@H](F)CN1)c1ccc(-c2cn(-c3ccccc3)cn2)cc1` are -10% and 1.51.
`CN(CCn1cnnc1)C(=O)c1cccc(Br)c1Cl`: the “% Inhibition” value is -2% and the Z score is recorded as 0.28.
On to `COc1ccc(NC(=O)Cn2c(N(C)Cc3ccccc3)nc(C)cc2=O)cc1Cl`, for which the “% Inhibition” value is reported as -3% and the Z score came to 0.5.
The like results for `CCCOC[C@H]1CCN(C(=O)c2cc(-c3ccc(OC)cc3)n[nH]2)C1` were, in that order, -12% and 2.15.
The like results for `CCn1c(-c2cccnc2)nc2cc(NC(=O)COC)cc(C(=O)NCc3nc(C)cs3)c21` were, in that order, 12% and -1.51.
For the compound `C=CCOc1ccc(-c2nc(=O)c(CCC(=O)NCc3cccnc3)n[nH]2)cc1OC`, the “% Inhibition” value is recorded as -13% and the Z score is reported as 1.29.
The corresponding values for `COc1ccsc1S(=O)(=O)NCc1cc(Cl)cn1C` are 10% and -1.42.
The like results for `COCCN1CCC(N2CCCN(C(=O)C3COc4ccccc4O3)CC2)C1=O` (stereo not given) were, in that order, -13% and 2.29.

The term % Inhibition denotes the drop in the measured response relative to a control, in per cent.
